Data from the supplement of paper PMC4967469.

Key:
Experiment in all cases: Viability of human cancer cell lines after 72 h of drug (GDSC screen)
UNC1215 = compound: O=C(c1ccc(C(=O)N2CCC(N3CCCC3)CC2)c(Nc2ccccc2)c1)N1CCC(N2CCCC2)CC1 [UNC1215]; conditions: top dose 1 µM; top dose inferred
Description: (§1)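 Human cancer cell lines in 384-well plates, medium with 10% serum, drug for 72 h over a 256-fold dose range (nine 2-fold or five 4-fold steps up to the top dose). Adherent lines were fixed and stained with the nucleic acid dye Syto60, suspension lines read with resazurin; signal relative to control wells, capped at 0 and 100%. One two-parameter sigmoid per drug and line, fitted in a mixed model over all curves with the slope shared within a line.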

CCT018159 = compound: CCc1cc(-c2n[nH]c(C)c2-c2ccc3c(c2)OCCO3)c(O)cc1O [CCT018159]; conditions: top dose 10 µM; top dose inferred
Description: as §1

TG101348 = compound: Cc1cnc(Nc2ccc(OCCN3CCCC3)cc2)nc1Nc1cccc(S(=O)(=O)NC(C)(C)C)c1 [TG101348]; conditions: top dose 10.24 µM
Description: as §1

Doxorubicin = compound: COc1cccc2c1C(=O)c1c(O)c3c(c(O)c1C2=O)C[C@@](O)(C(=O)CO)C[C@@H]3O[C@H]1C[C@H](N)[C@H](O)[C@H](C)O1 [Doxorubicin]; conditions: top dose 1.024 µM
Description: as §1

17-AAG = compound: C=CCNC1=C2C[C@@H](C)C[C@H](OC)[C@H](O)[C@@H](C)/C=C(\C)[C@H](OC(N)=O)[C@@H](OC)/C=C\C=C(/C)C(=O)NC(=CC1=O)C2=O [17-AAG]; conditions: top dose 1 µM
Description: as §1

VX-11e = compound: Cc1cnc(Nc2ccc(F)cc2Cl)nc1-c1c[nH]c(C(=O)N[C@H](CO)c2cccc(Cl)c2)c1 [VX-11e]; conditions: top dose 5.12 µM; top dose inferred
Description: as §1

BIX02189 = compound: CN(C)Cc1cccc(N=C(c2ccccc2)c2c(O)[nH]c3cc(C(=O)N(C)C)ccc23)c1 [BIX02189]; conditions: top dose 20 µM; top dose inferred
Description: as §1

Dimethyloxalylglycine = compound: COC(=O)CNC(=O)C(=O)OC [Dimethyloxalylglycine]; conditions: top dose 4000 µM; top dose inferred
Description: as §1

OSI-027 = compound: COc1cccc2cc(-c3nc([C@H]4CC[C@H](C(=O)O)CC4)n4ncnc(N)c34)[nH]c12 [OSI-027]; conditions: top dose 20 µM
Description: as §1

Vismodegib = compound: CS(=O)(=O)c1ccc(C(=O)Nc2ccc(Cl)c(-c3ccccn3)c2)c(Cl)c1 [Vismodegib]; conditions: top dose 10 µM; top dose inferred
Description: as §1

Row | Cell Line | AUC (UNC1215) | IC50 (UNC1215) [µM] | AUC (CCT018159) | IC50 (CCT018159) [µM] | AUC (TG101348) | IC50 (TG101348) [µM] | AUC (Doxorubicin) | IC50 (Doxorubicin) [µM] | AUC (17-AAG) | IC50 (17-AAG) [µM] | AUC (VX-11e) | IC50 (VX-11e) [µM] | AUC (BIX02189) | IC50 (BIX02189) [µM] | AUC (Dimethyloxalylglycine) | IC50 (Dimethyloxalylglycine) [µM] | AUC (OSI-027) | IC50 (OSI-027) [µM] | AUC (Vismodegib) | IC50 (Vismodegib) [µM]
1 | COLO-678 (large intestine, semi-adherent) | 0.983 | > 1 | 0.909 | > 10 | 0.947 | > 10.2 | 0.774 | 0.525 | 0.597 | 0.125 | 0.969 | > 5.12 | 0.97 | > 20 | 0.75 | 1650 | 0.94 | > 20 | 0.974 | > 10
2 | JVM-3 (lymphoid neoplasm, suspension) | 0.966 | > 1 | 0.823 | 6 | 0.909 | > 10.2 | 0.966 | > 1.02 | 0.776 | 0.405 | 0.797 | 2.47 | 0.946 | > 20 | 0.943 | > 4000 | 0.855 | 16.3 | 0.899 | > 10
3 | LNZTA3WT4 (glioma, adherent) | 0.987 | > 1 | 0.906 | > 10 | 0.978 | > 10.2 | 0.744 | 0.315 | 0.762 | 0.351 | 0.981 | > 5.12 | 0.965 | > 20 | 0.653 | 659 | 0.783 | 8.27 | 0.956 | > 10
4 | SUP-T1 (T-cell lymphoblastic leukaemia, suspension) | 0.98 | > 1 | 0.985 | > 10 | 0.814 | 4.96 | 0.552 | 0.0874 | 0.955 | > 1 | 0.987 | > 5.12 | 0.854 | 13.6 | 0.405 | 141 | 0.57 | 1.91 | 0.966 | > 10
5 | CAL-72 (osteosarcoma, adherent) | 0.982 | > 1 | 0.884 | > 10 | 0.984 | > 10.2 | 0.721 | 0.307 | 0.902 | > 1 | 0.984 | > 5.12 | 0.984 | > 20 | 0.543 | 334 | 0.984 | > 20 | 0.965 | > 10
6 | JSC-1 (B-cell lymphoma, suspension) | 0.985 | > 1 | 0.921 | > 10 | 0.474 | 0.544 | 0.396 | 0.0333 | 0.794 | 0.453 | 0.613 | 0.652 | 0.878 | 19.9 | 0.356 | 101 | 0.138 | 0.0933 | 0.986 | > 10
7 | CTV-1 (acute myeloid leukaemia, suspension) | 0.99 | > 1 | 0.806 | 3.94 | 0.614 | 1.23 | 0.3 | 0.0201 | 0.95 | > 1 | 0.962 | > 5.12 | 0.559 | 1.75 | 0.605 | 457 | 0.685 | 3.66 | 0.968 | > 10
8 | KARPAS-422 (B-cell lymphoma, suspension) | 0.98 | > 1 | 0.985 | > 10 | 0.666 | 1.84 | 0.678 | 0.199 | 0.895 | > 1 | 0.987 | > 5.12 | 0.91 | > 20 | 0.421 | 152 | 0.234 | 0.214 | 0.985 | > 10
9 | HD-MY-Z (Hodgkin lymphoma, adherent) | 0.983 | > 1 | 0.874 | 9.87 | 0.701 | 2.37 | 0.72 | 0.269 | 0.611 | 0.127 | 0.898 | > 5.12 | 0.88 | > 20 | 0.792 | 1830 | 0.234 | 0.21 | 0.947 | > 10
10 | NCI-H2342 (lung adenocarcinoma, adherent) | 0.984 | > 1 | 0.96 | > 10 | 0.976 | > 10.2 | 0.424 | 0.0389 | 0.949 | > 1 | 0.975 | > 5.12 | 0.96 | > 20 | 0.39 | 121 | 0.921 | > 20 | 0.986 | > 10
11 | CP66-MEL (melanoma, adherent) | 0.984 | > 1 | 0.954 | > 10 | 0.984 | > 10.2 | 0.899 | > 1.02 | 0.794 | 0.534 | 0.937 | > 5.12 | 0.985 | > 20 | 0.591 | 462 | 0.813 | 12.7 | 0.986 | > 10
12 | NCI-H1417 (small cell lung carcinoma, suspension) | 0.972 | > 1 | 0.893 | > 10 | 0.832 | 8.36 | 0.746 | 0.379 | 0.981 | > 1 | 0.942 | > 5.12 | 0.944 | > 20 | 0.73 | 1300 | 0.752 | 7.74 | 0.976 | > 10
13 | SUIT-2 (pancreas, adherent) | 0.985 | > 1 | 0.983 | > 10 | 0.704 | 2.48 | 0.518 | 0.0719 | 0.926 | > 1 | 0.607 | 0.64 | 0.695 | 4.53 | 0.822 | 2500 | 0.402 | 0.663 | 0.982 | > 10
14 | KARPAS-299 (anaplastic large cell lymphoma, suspension) | 0.978 | > 1 | 0.916 | > 10 | 0.868 | 6.78 | 0.696 | 0.204 | 0.848 | 0.561 | 0.992 | > 5.12 | 0.955 | > 20 | 0.354 | 107 | 0.347 | 0.511 | 0.971 | > 10
15 | HuO-3N1 (osteosarcoma, adherent) | 0.98 | > 1 | 0.891 | > 10 | 0.85 | > 10.2 | 0.85 | > 1.02 | 0.771 | 0.507 | 0.979 | > 5.12 | 0.952 | > 20 | 0.655 | 775 | 0.829 | 18.2 | 0.935 | > 10
16 | NCI-H2009 (lung adenocarcinoma, adherent) | 0.962 | > 1 | 0.954 | > 10 | 0.981 | > 10.2 | 0.494 | 0.0616 | 0.665 | 0.185 | 0.9 | > 5.12 | 0.952 | > 20 | 0.531 | 305 | 0.966 | > 20 | 0.97 | > 10
17 | MRK-nu-1 (breast, suspension) | 0.989 | > 1 | 0.973 | > 10 | 0.988 | > 10.2 | 0.438 |  | 0.988 | > 1 | 0.974 | > 5.12 | 0.946 | > 20 | 0.733 | 1080 | 0.126 | 0.0933 | 0.979 | > 10
18 | NCI-H2081 (small cell lung carcinoma, suspension) | 0.988 | > 1 | 0.969 | > 10 | 0.9 | > 10.2 | 0.704 | 0.25 | 0.965 | > 1 | 0.987 | > 5.12 | 0.989 | > 20 | 0.699 | 940 | 0.801 | 10.4 | 0.981 | > 10
19 | EW-13 (Ewing sarcoma, suspension) | 0.983 | > 1 | 0.982 | > 10 | 0.794 | 5.3 | 0.256 | 0.0117 | 0.983 | > 1 | 0.939 | > 5.12 | 0.683 | 4.31 | 0.24 | 40.1 | 0.235 | 0.194 | 0.956 | > 10
20 | LC4-1 (lymphoblastic leukaemia, suspension) | 0.982 | > 1 | 0.985 | > 10 | 0.493 | 0.609 | 0.688 | 0.23 | 0.985 | > 1 | 0.879 | > 5.12 | 0.82 | 13.1 | 0.334 | 81.6 | 0.136 | < 0.0781 | 0.985 | > 10
21 | JHH-4 (liver, adherent) | 0.977 | > 1 | 0.953 | > 10 | 0.976 | > 10.2 | 0.742 | 0.314 | 0.983 | > 1 | 0.939 | > 5.12 | 0.893 | > 20 | 0.339 | 89.6 | 0.977 | > 20 | 0.964 | > 10
22 | YT (lymphoid neoplasm, suspension) | 0.986 | > 1 | 0.957 | > 10 | 0.617 | 1.27 | 0.881 | 0.792 | 0.819 | 0.462 | 0.886 | 4.19 | 0.952 | > 20 | 0.142 | 24.9 | 0.051 | < 0.0781 | 0.944 | > 10
23 | CAL-39 (cervix, adherent) | 0.984 | > 1 | 0.881 | > 10 | 0.909 | > 10.2 | 0.58 | 0.107 | 0.558 | 0.0904 | 0.926 | > 5.12 | 0.937 | > 20 | 0.186 | 27.3 | 0.918 | > 20 | 0.984 | > 10

The IC50 comes from the fitted curve, where viability falls to half of the control; fits outside the tested doses are given as limits. AUC is the area under the same curve over the 256-fold range up to the top dose, as a fraction; it is 1 without any effect and falls as sensitivity rises. For part of these data: Where the top dose is marked as inferred, it was calculated from the reported fits.
